# Among all 360,000 compounds or so, about 17,000 (4.7%) were called active. Inconclusive means that the source gave no clear call. Such entries were picked first, then a sample of the others. Cut-off read from the data, not from the text of the source: active = activity change below about -50%; inconclusive = mostly about -30% to -49%; inactive = weaker than that.
# Test: qHTS for Inhibitors of Inflammasome Signaling: IL-1-beta AlphaLISA Primary Screen
# Conditions: THP-1 LPS/ATP IL-1B secretion, 16 h; at 57.5 µM, hits give low values
# Procedure, shortened: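 Secreted IL-1B measured by AlphaLISA bead assay after 16 h compound exposure of THP-1 cells; compounds (final up to 57.5 uM) added 1 h before LPS (250 ng/mL) and ATP (1.25 mM) stimulation; lower signal means less secretion.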
# % is set by controls: 0 for no effect and ±100 for the full control effect.
row,Compound,activity change
1,N#CC1=C(N)Oc2cc(N)ccc2C1C1CCCCC1 (stereo not given),inconclusive: -31.2%
2,Cc1ccc(NC(=S)Nc2ccc(OC(F)F)c(Cl)c2)cc1Cl,active: -92%
3,NS(=O)(=O)c1ccc2nc(NC(=O)Nc3ccccc3F)sc2c1,inconclusive: -30.3%
4,Oc1ccc(-c2nc3ccc4ccccc4c3c3c2CCC3)cc1O,active: -54.5%
5,O=C(NCc1ccc(Cl)cc1)C1CCN(S(=O)(=O)c2ccccc2)CC1,inconclusive: -39.7%
6,OCCCCNCc1cc(Br)ccc1OCc1ccccc1F,active: -70.3%
7,O=C(c1cc(COc2c(F)cccc2F)on1)N(Cc1ccccc1)CC1CC1,active: -51.3%
8,CSCc1ccc(C(=O)NC2CC(C)(C)Cc3c2cnn3-c2ccc(F)cc2)o1 (stereo not given),inconclusive: -40.2%
9,Cc1ccccc1-c1noc(-c2ccccc2C(=O)NCc2ccco2)n1,inconclusive: -46%
10,COc1cccc(OCCOc2ccccc2[N+](=O)[O-])c1,inconclusive: -39.1%
11,CN1CCN(C(CNS(=O)(=O)c2ccc(Br)cc2)c2ccc3c(c2)OCO3)CC1 (stereo not given),inconclusive: -35.2%
12,CCOC(=O)C1CCCN(S(=O)(=O)c2ccc(Br)s2)C1 (stereo not given),inactive: 0%
13,Cc1noc(C)c1COC(=O)c1ccccc1NC(=O)c1ccco1,inconclusive: -32.2%
14,CC(C)(C)c1ccc(C(=O)/C=C2\NC(=O)CS2)cc1,inactive: -23%
15,Cc1sc(=NC(=O)c2ccco2)n(C)c1-c1ccccc1,inconclusive: -30.2%
16,CC1CCc2[nH]c3ccc(C(=O)NCCCOC(C)C)cc3c2C1 (stereo not given),inconclusive: -32%
17,CCC(C)(C)C1CCc2[nH]nc(C(=O)NC3CCCC3)c2C1 (stereo not given),inconclusive: -30.3%
18,O=C(c1c(F)c(F)c(F)c(F)c1F)N1CCN(Cc2ccc3c(c2)OCO3)CC1,inconclusive: -31%
19,O=C(NCc1cccs1)c1cccnc1SCCS(=O)(=O)c1ccc(C(F)(F)F)cn1,inconclusive: -35.4%
20,CC[C@H]1CN2CCc3cc(OC)c(OC)cc3C2C[C@@H]1C[C@H]1NCCc2cc(OC)c(OC)cc21 (stereo not given in full),active: -108%
21,Cc1nc2cc(NCc3ccccc3O)ccc2n1Cc1ccccc1,active: -54.5%
22,Cc1cc(C)c(C(=O)NC2CC(C)(C)Cc3c2cnn3-c2ccccc2)o1 (stereo not given),inconclusive: -31.4%

row,Compound,activity change
1,O=C(Cc1ccccc1)NC(=S)Nc1cccc(C(F)(F)F)c1,inactive: 49.3%
2,CN(C)C=Nc1c(C(=O)c2ccccc2)sc2nccc(N(C)C)c12,active: -54%
3,COC(=O)c1cc(OC)c(OC)cc1NC(=O)c1ccc(Br)o1,inconclusive: -36.3%
4,Cc1cc(C(=O)N2CCC2(C)C(=O)NCCC#N)nn1C (stereo not given),inactive: 0%
5,Cc1ccccc1CN1CCNC(=O)C1CC(=O)NC1CCCCCCC1 (stereo not given),inactive: -13.5%
6,COc1ccc(C(=O)Nc2ccc(NS(=O)(=O)c3ccccc3)cc2)cc1OC,inconclusive: -36.8%
7,COc1ccc(NC(C)=[N+](C)CCNS(=O)(=O)c2ccc(Cl)cc2)cc1,inconclusive: -40.2%
8,CC1(C)Cc2c(sc3[nH]c(=S)n(Cc4ccco4)c(=O)c23)CO1,inconclusive: -42.9%
9,O=C(Nc1cc(Cl)cc2c1-c1ccc(Cl)cc1C2O)C(Cl)Cl (stereo not given),active: -60.6%
10,O=c1ccc2c(ccc3ncccc32)o1,inconclusive: -48.6%
11,CC(C)(C)NC(=O)CSc1ncnc2c1nnn2Cc1ccccc1Cl,active: -60.3%
12,Cc1ccc(C(c2nnnn2Cc2cccs2)N2CCN(C(=O)c3ccco3)CC2)cc1 (stereo not given),inconclusive: -42.2%
13,O=C(Nc1nc(-c2ccc(-c3ccccc3)cc2)cs1)C1CCCO1 (stereo not given),inconclusive: -30.3%
14,Cc1ccc(C(=O)C2=C(O)C(=O)N(Cc3ccccc3)C2c2cccnc2)o1 (stereo not given),inactive: 20.7%
15,C=CCCCCCCCCC(=O)N1CCN(c2cc3c(cc2F)c(=O)c(C(=O)O)cn3CC)CC1,inactive: 27.7%
16,CC(C)C[C@H](NC(=O)OC(C)(C)C)C(=O)N/N=C/C1=Cc2ccccc2OC1C (stereo not given in full),inconclusive: -47.3%
17,CN(C)c1ccc(/C=C/C=C2/SC(=S)N(c3ccccc3)C2=O)cc1,inconclusive: -30.6%
18,COc1cc(C(=O)NCC(=O)N/N=C/c2ccc(-c3cccc([N+](=O)[O-])c3)o2)cc(OC)c1OC,active: -84.7%
19,COc1cc(C(C(=O)NC2CCCCC2)N(C(=O)Cc2c[nH]c3ccccc23)c2ccccc2C)cc(OC)c1OC (stereo not given),inconclusive: -34.5%
20,CN(C)CCCNc1ncnc2c1c(-c1ccccc1)cn2-c1ccccc1,inconclusive: -40.5%
21,O=C1C(=O)c2c(ccc3ccccc23)-c2ccccc21,active: -86.6%
22,O=C(c1ccccc1)[C@@H]1[C@@H](C(=O)c2ccc(F)cc2)[C@@]2(C(=O)Nc3ccccc32)[C@H]2c3ccccc3C=CN12,inconclusive: -43.5%

row,Compound,activity change
1,CC1CNCCN1S(=O)(=O)c1cccc2cnccc12 (stereo not given),inconclusive: -34.8%
2,CC1(C(=O)NC2CCN(Cc3ccccc3)CC2)CCN1Cc1ccc2ccccc2c1 (stereo not given),inactive: 0%
3,O=[N+]([O-])c1cc2c(c(CSc3nnnn3-c3ccc(O)cc3)c1)OCOC2,inactive: -14.5%
4,O=C(Nc1nnc(C2CCCCC2)s1)c1ccc(Br)s1,inconclusive: -34.8%
5,COC(=O)CC(N)c1ccc(OC)c2ccccc12 (stereo not given),inconclusive: -31.6%
6,COc1ccc(C2CC(c3ccccc3OC(=O)/C=C/c3ccccc3)=NN2C(C)=O)cc1 (stereo not given),inactive: 9.17%
7,Cc1ccc(C)c(OCC(=O)N(Cc2nnc(-c3ccccc3Cl)o2)C2CC2)c1,inactive: -5.15%
8,O=C(c1cc(COc2c(F)cccc2F)on1)N1CCC(c2ccncc2)CC1,inconclusive: -31.6%
9,Cc1sc2ncnc(N3CCC(C(=O)NNC(=O)c4ccc(Cl)cc4)CC3)c2c1C,active: -80.8%
10,O=C(O)CNS(=O)(=O)c1ccc2c(c1)Cc1cc(S(=O)(=O)NCC(=O)O)ccc1-2,inactive: 12.5%
11,CN(C)c1ccc(/C=N/c2cc(-c3ccccc3)nn2-c2ccccc2)cc1,inconclusive: -34.3%
12,C=CCS/C(=N\n1cnc2ccccc2c1=O)N(CC)CC,inactive: 34.1%
13,CC(=O)N1CCN(C(=O)COC(=O)/C=C/c2ccc(C(F)(F)F)cc2)CC1,inconclusive: -46.4%
14,CCCC(=O)Nc1ccc2nc(SCC(=O)Nc3ccc(N4CCOCC4)c(Cl)c3)sc2c1,active: -50.3%
15,COc1ccc(-c2nc(CN3CCC(c4ccccc4)CC3)c(C)o2)cc1OC,inconclusive: -33.8%
16,C/C=C(/C)C(=O)Nc1cccc(C2=NOC3(C2)C[C@@H](C(N)=O)N(C(=O)CC(c2ccccc2)c2ccccc2)C3)c1 (stereo not given in full),inconclusive: -33.7%
17,O=S(=O)(N1CCCCC1)n1c(Cc2ccccc2)nc2ccccc21,inconclusive: -36.1%
18,Cc1nn(Cc2ccc(Cl)c(Cl)c2)c(C)c1NC(=O)c1cn(-c2ccccc2)nc1-c1ccccc1,inconclusive: -31.1%
19,COc1cccc(NC(=S)Nc2ccc(Br)cc2Cl)c1,inconclusive: -37.9%
20,CSc1ccc(/C=C/C(=O)c2ccc(NC(=O)C(C)C)cc2)cc1,inconclusive: -47.1%
21,COc1ccccc1NC(=O)C1CCCN(S(=O)(=O)c2ccc3[nH]c(=O)ccc3c2)C1 (stereo not given),inactive: 25.1%
22,CC(Oc1ccc(F)cc1)C(=O)Nc1ccccc1N1CCCCC1 (stereo not given),inactive: -11.8%

row,Compound,activity change
1,O=C(NNc1c2ccccc2nc2ccccc12)c1cccc(O)c1,active: -79.7%
2,CS(=O)(=O)N1CCc2cc(C(=O)Nc3ccc(Br)cc3)ccc21,inactive: -8.31%
3,O=C(Cn1c(O)c(/C=C2\C=Nc3ccc(Br)cc32)sc1=O)N1CCCC1,inconclusive: -41.5%
4,CCOC(=O)C1=CCC(c2cc3ccc(OC)cc3n2C(=O)OC(C)(C)C)NC1 (stereo not given),inconclusive: -38.6%
5,O=C1NC[C@@H](c2ccccc2)OC(=O)[C@@H](Cc2ccc(F)cc2)CC/C=C/C[C@@H]1CC(=O)N(CCO)Cc1ccccc1,inconclusive: -44.5%
6,CCOc1ccc(/C=N/N(C)c2ccccc2)cc1OC,inconclusive: -35.4%
7,Cc1ccc(NC(=O)c2c(C(F)(F)F)nn(C)c2Cl)cc1C,inactive: 4.2%
8,O=C(CN1C(=O)NC(c2ccccc2)(c2ccccc2)C1=O)N1CCN(c2ccccc2F)CC1,inconclusive: -37.2%
9,COCCn1nnnc1C(c1cc2cc(OC)ccc2[nH]c1=O)N1CCC(Cc2ccccc2)CC1 (stereo not given),inconclusive: -43.3%
10,O=S(=O)(c1ccc(Br)s1)N1CCN(c2ccccc2)CC1,inconclusive: -40.5%
11,COc1ccc(COC(=O)N/N=C(\C)CC(=O)Nc2ccc(Cl)cc2)cc1,inconclusive: -39.9%
12,COc1ccc(NC(=O)C(C2CC2)n2c(=O)c(-c3cc4ccccc4[nH]3)nc3ccccc32)cc1 (stereo not given),inconclusive: -35.5%
13,Cc1c(C)n(C)c2ccc(C(=O)NCCc3ccco3)cc12,inconclusive: -46.5%
14,OCCNCc1cc(Br)ccc1OCc1ccc(Cl)cc1Cl,inconclusive: -44.3%
15,COc1ccc(CN2CCN(Cc3ccc4cc(F)ccc4n3)CC2CCO)c(C)c1C (stereo not given),inconclusive: -42.2%
16,CN(CC(=O)NCCc1ccc(S(N)(=O)=O)cc1)Cc1ccc(Cl)cc1Cl,inactive: -12.6%
17,CN(C)c1cc[n+](CC(=O)N2c3ccccc3Sc3ccccc32)cc1,inconclusive: -31.2%
18,COc1cc(-c2c(C#N)c(N)nc(SCc3ccncc3)c2C#N)cc(OC)c1OC,inconclusive: -48.4%
19,COc1cccc(OC)c1OCCOc1ccc(C(=O)c2ccccc2)cc1,inconclusive: -37%

# Source: PubChem BioAssay AID743279 (National Center for Advancing Translational Sciences (NCATS), 2014)
